Source: the supplement of paper PMC6828730
The other results are listed elsewhere or left out. Single values are uncertain, as repeats are few or missing.

Key:
[1] = tested on: hiPSC-derived cardiomyocytes; test: time to death of most cells in well after compound addition (days); higher = less cardiotoxic; details: screen: 1; 10 µM
[2] = tested on: hiPSC-derived cardiomyocytes; test: time to death of most cells in well after compound addition (days); higher = less cardiotoxic; extreme values may be limits of the assay; details: 10 µM

Row | Structure (SMILES) | time to death of most cells in well [1] | time to death of most cells in well ([2]; screen: 2) | time to death of most cells in well ([2]; screen: 3) | time to death of most cells in well ([2]; screen: 4)
1 | NC(=O)c1cnc(N[C@@H]2CCCC[C@@H]2N)nc1Nc1cccc(-n2nccn2)c1 | 3 | 4.5 | > 7 | 4
2 | COc1ncc(-c2cc(-c3ncc(CN4C[C@@H](C)O[C@@H](C)C4)o3)c3cn[nH]c3c2)cc1NS(C)(=O)=O | 3.5 | > 7 | > 7 | > 7
3 | O=C1C(c2c(O)[nH]c3ccccc23)=Nc2ccccc21 [Indirubin] | > 7 | > 7 | > 7 | > 7
4 | COc1cc2ncnc(Nc3ccc(F)c(Cl)c3)c2cc1OCCCN1CCOCC1 [Gefitinib (ZD1839)] | 4 | > 7 | > 7 | > 7
5 | C[C@@]1(C(=O)Nc2ccc(F)nc2)CCCN1c1nc(Nc2cc(C3CC3)n[nH]2)c2cccn2n1 | 5 | 2 | 6 | > 7
6 | Cc1ccc2nc(NCCN)c3ncc(C)n3c2c1 | 2 | > 7 | > 7 | > 7
7 | COc1cc(-c2cc(-c3ccc(N4CCNCC4)cc3)cnc2C)cc(OC)c1OC | 6 | 4.5 | > 7 | > 7
8 | CC(C)(C)c1cc(C=C(C#N)C#N)cc(C(C)(C)C)c1O [Tyrphostin 9] | 5 | 0.5 | 0 | > 7
9 | CO[C@H]1CC[C@H](N2C(=O)CNc3ncc(-c4ccc(C(C)(C)O)nc4)nc32)CC1 | 2 | 2 | > 7 | > 7
10 | C=CC(=O)Nc1cccc(Oc2nc(Nc3ccc(N4CCN(C)CC4)cc3)nc3ccsc23)c1 | > 7 | 3.5 | > 7 | > 7
11 | NC1(c2ccc(-c3nc4ccn5c(=O)[nH]nc5c4cc3-c3ccccc3)cc2)CCC1 | 1 | 1 | > 7 | 1.5
12 | c1cncc(CN2CCC(n3ncc4c(N5CCOCC5)nc(-c5ccc6[nH]ccc6c5)nc43)CC2)c1 | 5.5 | 4 | 6 | 4
13 | CC(C)Nc1cc(-c2c[nH]c(C(=O)N[C@H](CO)c3cccc(Cl)c3)c2)c(Cl)cn1 | > 7 | > 7 | > 7 | > 7
14 | CCOc1ccn(-c2ccc(F)cc2)c(=O)c1C(=O)Nc1ccc(Oc2ccnc(N)c2Cl)c(F)c1 | 5.5 | 6.5 | > 7 | > 7
